Laboratory results as given in PubChem BioAssay AID1476 (National Center for Advancing Translational Sciences (NCATS), 2009).
About 4,500 (2.2%) of roughly 200,000 compounds were called active. Inconclusive results, whose numbers are uncertain, are shown with a selection of clear calls. The call rests on the fitted dose curve; in most records, active means well fitted inhibition curve with a large enough effect; inconclusive means small, poorly fitted or top-dose-only effect, or effect the other way; inactive means flat fitted curve, though single readings scatter. Potencies beside an inconclusive call are fits to weak or partial responses and may not hold up.
Further: nearly all actives have a fitted effect of over 40% in size.
Potency means the concentration at half of the fitted maximal effect; tags describe the fitted curve by direction and shape.
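Wherever max response, negative = inhibition is given: plate controls were enzyme without inhibitor for no effect and buffer without enzyme for full effect.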

Each compound was assayed against Cruzipain (Trypanosoma cruzi) (UniProt P25779) (assay: qHTS Assay for Promiscuous and Specific Inhibitors of Cruzain (without detergent)). Settings: purified cruzain, Z-FR-AMC fluorescence, no detergent.
Chain of UniProt P25779 (P25779 whole entry, looked up): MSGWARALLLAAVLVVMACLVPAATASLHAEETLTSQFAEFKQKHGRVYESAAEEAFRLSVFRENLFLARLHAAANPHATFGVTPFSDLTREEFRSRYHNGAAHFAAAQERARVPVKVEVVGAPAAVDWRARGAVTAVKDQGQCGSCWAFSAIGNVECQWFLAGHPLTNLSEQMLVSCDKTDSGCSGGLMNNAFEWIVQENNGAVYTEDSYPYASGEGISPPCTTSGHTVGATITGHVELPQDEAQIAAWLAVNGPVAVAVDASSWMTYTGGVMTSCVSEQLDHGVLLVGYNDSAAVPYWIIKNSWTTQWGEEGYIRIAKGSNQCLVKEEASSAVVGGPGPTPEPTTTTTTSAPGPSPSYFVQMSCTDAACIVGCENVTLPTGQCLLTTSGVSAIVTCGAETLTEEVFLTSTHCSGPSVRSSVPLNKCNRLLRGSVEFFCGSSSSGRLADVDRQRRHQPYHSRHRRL
Method in brief: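 Detergent-free condition (0.00005% Triton X-100) in acetate buffer pH 5.5 with DTT. 1.5 nM enzyme and compound were pre-mixed 15 min, then 2 uM Z-FR-AMC substrate added; reaction progress from fluorescence change between first and third reads (60 s).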
With `Cc1ccc(Cl)cc1N1CCN(S(=O)(=O)c2ccc3c(c2)CCCN3C(=O)C2CCC2)CC1` the max response, negative = inhibition was inactive: 1.34%.
For `COc1ccc(-n2c(O)c(/C=N/NS(=O)(=O)c3cc(C)ccc3C)c3ccccc3c2=O)cc1OC`, the Potency was inconclusive: 39.8 µM [activator, single point].
With `Cc1nc2ccn(Cc3cccs3)c(=O)c2cc1C(=O)Nc1ccccc1` the max response, negative = inhibition was inactive: 45.1%.
In the case of `Cc1c(C2=CCN(S(=O)(=O)c3ccc(Br)cc3)CC2)c2ccccc2n1C`, the Potency is reported as active: 10 µM.
For `Cc1ccc(/C=C/c2onc(C)c2S(=O)(=O)N2CCC(C(=O)NCC(C)c3ccccc3)CC2)cc1` (centres undefined), the max response, negative = inhibition was inactive: -3.17%.
In the case of `Cc1ccc(CNC(=O)C23CN(Cc4ccccc4)CC2C(c2ccc([N+](=O)[O-])cc2)=NO3)cc1` (centres undefined), the Potency is reported as inconclusive: 31.6 µM [inhibitor, single point].
With `CCc1c(C)nc2ncnn2c1N1CCC(C(=O)N2CCN(c3ccc(F)cc3)CC2)CC1` the Potency was inconclusive: 31.6 µM [activator, single point].
With `Cc1ccc(C)n1-c1nnc(N2CCCC(C(=O)NCc3cccc(Cl)c3)C2)s1` (centres undefined) the max response, negative = inhibition was inactive: 9.84%.
With `Cc1c(C(=O)Nc2nccs2)sc2nc(-c3cccs3)cc(C(F)(F)F)c12` the Potency was inconclusive: 15.8 µM [inhibitor, partial curve, poor fit].
With `CC(C)[C@@H](CC(=O)N[C@@H]1CCCC[C@H]1C(=O)N[C@H](CC(=O)N[C@@H](CCC(=O)O)CC(=O)O)Cc1c[nH]c2ccccc12)NC(=O)C[C@H](CO)NC(=O)[C@@H]1CCCC[C@H]1N` the max response, negative = inhibition was inactive: -3.24%.
`COc1ccc(-c2sc(NC(=O)c3ccc(C)cc3)nc2-c2ccc([N+](=O)[O-])cc2)cc1` was tested, and the Potency was active: 3.98 µM.
With `CC1=CC(=O)C2=C(C)C[C@@H]3OC(=O)[C@@H](C)[C@H]3C=C12` the max response, negative = inhibition was inactive: -7.09%.
In the case of `CC1CCCN(c2oc(-c3cccc4ccccc34)nc2C#N)C1` (centres undefined), the Potency is reported as inconclusive: 39.8 µM [inhibitor, single point].
For `Cc1ccccc1C(=O)Nc1nc(-c2nnn(-c3ccc(C(C)C)cc3)c2C)ns1`, the max response, negative = inhibition was inactive: -15.5%.
With `COc1ccc(N2CC(NC(=O)c3ccc(Br)o3)CC2=O)cc1` (centres undefined) the max response, negative = inhibition was inactive: -1.02%.
`Cc1ccccc1C1CC(=O)Oc2ccc(O)cc21` (centres undefined) was tested, and the max response, negative = inhibition was inactive: -13.3%.
In the case of `COc1cccc(C2CC(=O)N3CN(c4cccc(Cl)c4C)CSC3=C2C#N)c1OC` (centres undefined), the Potency is reported as inconclusive: 31.6 µM [inhibitor, single point].
For `O=C(O)c1c2c(nc3ccc(F)cc13)CCC2`, the Potency was inconclusive: 0.199 µM [activator, full curve, poor fit].
In the case of `Cc1nc(SCC(=O)Nc2cc(C)on2)c2c3c(sc2n1)CCCC3`, the Potency is reported as inconclusive: 15.8 µM [activator, partial curve].
With `Cn1c(=O)c2c(ncn2CC(=O)N/N=C/C(Cl)=C/c2ccccc2)n(C)c1=O` the Potency was inconclusive: 39.8 µM [activator, single point].
For `Cc1cc(C)n(-c2ccc(C(=O)Nc3ccc(C)c(S(=O)(=O)N(C)C)c3)cc2)n1`, the Potency was inconclusive: 31.6 µM [activator, single point].
For `Cc1ccccc1OC/C(O)=C(\C#N)c1nc2ccccc2[nH]1`, the Potency was active: 20 µM.
With `Cc1c(C(c2ccc(Cl)cc2Cl)c2c(O)c3ccccc3oc2=O)c(=O)n(-c2ccccc2)n1C` (centres undefined) the Potency was inconclusive: 39.8 µM [inhibitor, single point].
For `Cc1ccc(NC(=O)C2CCC(CNS(=O)(=O)c3csc(C(N)=O)c3)CC2)cc1Cl` (centres undefined), the max response, negative = inhibition was inactive: 0.957%.
In the case of `COc1ccc(Cl)cc1-n1nnc(-c2nsc(NC(=O)c3ccccc3Cl)n2)c1C`, the Potency is reported as inconclusive: 39.8 µM [inhibitor, single point].
In the case of `COc1ccc(C2(CNC(=O)C(=O)Nc3ccc(F)cc3)CCCC2)cc1OC`, the Potency is reported as inconclusive: 31.6 µM [inhibitor, single point].
With `Cc1nn(C)c(C)c1S(=O)(=O)N1CCC(C(=O)NC2CCCc3ccccc32)CC1` (centres undefined) the Potency was inconclusive: 39.8 µM [activator, single point].
In the case of `CCOC(=O)c1ccc(-c2ccc(/C=C(\C#N)C(=O)Nc3ccc(OCC)cc3)o2)cc1`, the max response, negative = inhibition is reported as inactive: -8.32%.
With `Cc1ccc(-c2cc(C(=O)N/N=C/c3c(C)nn(-c4ccccc4)c3C)[nH]n2)cc1` the Potency was inconclusive: 39.8 µM [activator, single point].
With `COc1cccc(OCc2nnc(SCC(=O)N3c4ccccc4Sc4ccc(Cl)cc43)o2)c1` the Potency was inconclusive: 39.8 µM [inhibitor, single point].
In the case of `COc1ccc([N+](=O)[O-])cc1/C=N/NC(=O)/C(=C\c1cccs1)NC(=O)c1ccccc1`, the Potency is reported as inconclusive: 39.8 µM [inhibitor, single point].
In the case of `NS(=O)(=O)c1ccc(NC(=S)N2CCN(c3ccc(Cl)c(Cl)c3)CC2)cc1`, the Potency is reported as inconclusive: 31.6 µM [inhibitor, single point].
In the case of `Cc1c(O)c2c(=O)n(-c3ccccc3)c(-c3ccccc3)cc2oc1=O`, the Potency is reported as inconclusive: 25.1 µM [inhibitor, single point].
For `CS(=O)(=O)N(Cc1ccco1)CC(O)Cn1c2ccccc2c2ccccc21` (centres undefined), the Potency was inconclusive: 39.8 µM [activator, single point].
With `CCc1ccc(-n2c(=O)c3cccnc3n2CC(=O)Nc2cc(F)ccc2F)cc1` the max response, negative = inhibition was inactive: -8.86%.
`COC(=O)c1cn(C)c2ccc(S(=O)(=O)N3CC(C)CC(C)C3)cc2c1=O` (centres undefined) was tested, and the Potency was inconclusive: 39.8 µM [activator, single point].
In the case of `COc1ccc(C2Nc3ccccc3C(=O)N2c2ccc(C)cc2)cc1Cn1cc([N+](=O)[O-])cn1` (centres undefined), the Potency is reported as inconclusive: 39.8 µM [inhibitor, single point].
For `Cc1ccn2cc(-c3ccc(S(=O)(=O)N4CCOCC4)cc3)nc2c1`, the Potency was inconclusive: 39.8 µM [inhibitor, single point].
In the case of `O=C(O)/C=C\c1ccc[c]([Sb])c1`, the max response, negative = inhibition is reported as inactive: 14%.
In the case of `Cc1ccc(-n2c(SCc3ccc([N+](=O)[O-])cc3)nc3ccccc3c2=O)cc1`, the Potency is reported as inconclusive: 39.8 µM [inhibitor, single point].
In the case of `CCOC(=O)c1c(-c2ccc(C)cc2)csc1NC(=O)C1CCCO1` (centres undefined), the Potency is reported as inconclusive: 39.8 µM [activator, single point].
In the case of `CCN(CC)CCCNC(=O)c1nn(C)c2c1CS(=O)(=O)c1ccccc1-2`, the max response, negative = inhibition is reported as inactive: 2.58%.
With `O=C(NCCCN1CCN(c2ccc(F)cc2)CC1)c1ccc2nc(Cc3ccccc3)oc2c1` the max response, negative = inhibition was inactive: -6.01%.
`N#Cc1nc(Cc2cccc3ccccc23)oc1N1CCN(c2ccccc2)CC1` was tested, and the Potency was active: 7.94 µM.
In the case of `Cc1nc2ccc(NC(=O)c3c(-c4ccccc4)noc3C)cc2s1`, the max response, negative = inhibition is reported as inactive: 15.9%.
For `O=C(CSc1nnc(-c2ccc(Cl)cc2Cl)n1C1CCCCC1)NC1CCS(=O)(=O)C1` (centres undefined), the Potency was inconclusive: 39.8 µM [activator, single point].
`COC(=O)c1ccc(OCC2c3cc(OC)c(OC)cc3CCN2C(=O)c2ccc(F)cc2)cc1` (centres undefined) was tested, and the Potency was inconclusive: 39.8 µM [activator, single point].
In the case of `O=C(Cn1nnc(-c2ccccc2Cl)n1)Nc1ccc(Br)cc1`, the max response, negative = inhibition is reported as inactive: -11.4%.
For `Cc1ccc2c(=O)cc(C(=O)Nc3cccc(C(F)(F)F)c3)oc2c1C`, the max response, negative = inhibition was inactive: -7.39%.
With `COc1c(O)ccc2c1CN1CCc3cc4c(cc3[C@@H]1C2)OCO4` the max response, negative = inhibition was inactive: 0.0473%.
With `N#Cc1c(NC(=O)CCCN2C(=O)c3ccccc3C2=O)oc(-c2ccccc2)c1-c1ccccc1` the Potency was inconclusive: 39.8 µM [inhibitor, single point].
`O=C(Nc1ccccc1C(F)(F)F)N1CCN(C(c2ccccc2)c2ccccc2)CC1` was tested, and the Potency was inconclusive: 10 µM [activator, partial curve].
In the case of `O=C(COc1ccc2ccccc2c1Br)NC(=S)Nc1cccc(CO)c1`, the Potency is reported as active: 31.6 µM.
In the case of `CCn1cc(C(=O)OCC(=O)Nc2cccc(C(C)=O)c2)c(=O)c2ccc(C)nc21`, the max response, negative = inhibition is reported as inactive: 7.55%.
`Cc1nn(-c2ccccc2)c(C)c1/C=N/NC(=O)c1cc(-c2ccccc2)n[nH]1` was tested, and the Potency was inconclusive: 39.8 µM [activator, single point].
With `Cc1ccc(CN2CCN(C(=O)C3CCCO3)CC2)cc1` (centres undefined) the Potency was inconclusive: 1.58 µM [inhibitor, single point].
With `O=C(Nc1sc2c(c1C(=O)NCC1CCCO1)CCC2)c1cc(=O)c2ccccc2o1` (centres undefined) the max response, negative = inhibition was inactive: -4.04%.
`COCCCNc1oc(-c2ccc(COc3ccc(Cl)cc3)o2)nc1C#N` was tested, and the Potency was inconclusive: 39.8 µM [activator, single point].
In the case of `COCCn1c(SCC(=O)Nc2ccc3c(c2)OCCO3)nc2c(c1=O)SC(C)C2` (centres undefined), the max response, negative = inhibition is reported as inactive: -19.4%.
For `COc1ccc(-c2nc3c(C#N)c[nH]n3c2NC2CCCC2)c(OC)c1`, the Potency was inconclusive: 15.8 µM [activator, partial curve].
With `COc1cc2nc(CN(C)CC(=O)Nc3ccc(N4CCOCC4)cc3)[nH]c(=O)c2cc1OC` the Potency was inconclusive: 31.6 µM [activator, single point].
In the case of `CCOC(=O)c1ccc(NC(=O)CCc2nc(-c3ccc(C)cc3)no2)cc1`, the Potency is reported as inconclusive: 39.8 µM [activator, single point].
With `CC(/C=C1\SC(=S)N(CCCC(=O)Nc2ccc(C(=O)O)c(O)c2)C1=O)=C\c1ccccc1` the Potency was inconclusive: 3.98 µM [activator, single point].
For `Nc1c(C(=O)OCC2CCCO2)c2nc3ccccc3nc2n1Cc1cccs1` (centres undefined), the Potency was inconclusive: 15.8 µM [activator, partial curve].
